For three compounds, GI50 and TGI results are on record in PubChem BioAssay (NCI).

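All cell lines were grown in 96-well plates and treated with compound for 48 hours. At the GI50, growth is halved. TGI marks complete inhibition of growth.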

This test has as its system NCI-H322M lung. The experiment in a line: DTP human tumour cell line panel, 48 h.
Turning to `CC(C)=CCc1c(O)c(CC=C(C)C)c2c(c1O)C(=O)C1=C[C@@H]3C[C@H]4C(C)(C)O[C@@](C/C=C(\C)C(=O)O)(C3=O)[C@@]14O2`, the GI50 is 28.7 µM and the TGI was found to be 98.9 µM.

`CN1CCN(Cc2ccc(NC(=O)c3cncc(C#Cc4cnc(N)nc4)c3)cc2C(F)(F)F)CC1`: the GI50 was 0.41 µM and the TGI worked out at 13.7 µM.

With `C#Cc1nc(/C=C/CCCCCCC(=O)NO)cs1`, the GI50 was 17.2 µM and the total growth inhibition concentration (TGI) was over 100 µM.
